The text below walks through data of paper PMC9619224.

Sequences of proteins named here, by UniProt entry; tags and fusion partners are left off. Residues count along the entry.
UniProt P34968, residues 33-459: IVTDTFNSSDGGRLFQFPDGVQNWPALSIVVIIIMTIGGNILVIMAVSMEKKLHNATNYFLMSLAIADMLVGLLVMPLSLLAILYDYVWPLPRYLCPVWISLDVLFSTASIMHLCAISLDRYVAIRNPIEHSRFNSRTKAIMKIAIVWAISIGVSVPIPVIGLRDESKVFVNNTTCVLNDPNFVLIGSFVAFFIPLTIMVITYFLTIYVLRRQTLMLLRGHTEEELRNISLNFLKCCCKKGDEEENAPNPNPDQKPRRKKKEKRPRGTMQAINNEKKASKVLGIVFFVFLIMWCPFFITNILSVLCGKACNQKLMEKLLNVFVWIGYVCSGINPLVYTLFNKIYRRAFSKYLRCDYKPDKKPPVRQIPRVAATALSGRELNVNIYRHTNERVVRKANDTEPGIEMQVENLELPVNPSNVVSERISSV
UniProt Q923Z0, residues 29-410: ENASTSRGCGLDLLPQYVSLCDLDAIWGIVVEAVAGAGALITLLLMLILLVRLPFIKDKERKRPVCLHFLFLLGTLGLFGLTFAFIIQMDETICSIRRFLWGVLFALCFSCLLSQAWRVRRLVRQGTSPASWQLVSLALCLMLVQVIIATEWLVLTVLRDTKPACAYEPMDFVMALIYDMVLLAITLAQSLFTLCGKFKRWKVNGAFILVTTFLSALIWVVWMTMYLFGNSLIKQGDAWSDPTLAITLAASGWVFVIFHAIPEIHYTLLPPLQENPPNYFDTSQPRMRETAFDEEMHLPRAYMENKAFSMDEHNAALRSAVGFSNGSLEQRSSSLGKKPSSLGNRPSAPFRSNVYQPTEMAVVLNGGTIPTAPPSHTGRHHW
UniProt P61793: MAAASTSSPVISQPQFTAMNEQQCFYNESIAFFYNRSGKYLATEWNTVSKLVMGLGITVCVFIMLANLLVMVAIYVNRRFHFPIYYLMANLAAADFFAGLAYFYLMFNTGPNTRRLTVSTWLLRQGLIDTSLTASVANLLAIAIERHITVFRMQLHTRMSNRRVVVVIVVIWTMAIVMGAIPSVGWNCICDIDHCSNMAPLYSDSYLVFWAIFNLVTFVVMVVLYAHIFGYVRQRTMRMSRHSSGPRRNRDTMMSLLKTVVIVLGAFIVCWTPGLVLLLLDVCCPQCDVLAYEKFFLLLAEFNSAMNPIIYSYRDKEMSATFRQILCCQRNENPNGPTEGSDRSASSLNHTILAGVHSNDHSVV
UniProt Q64326: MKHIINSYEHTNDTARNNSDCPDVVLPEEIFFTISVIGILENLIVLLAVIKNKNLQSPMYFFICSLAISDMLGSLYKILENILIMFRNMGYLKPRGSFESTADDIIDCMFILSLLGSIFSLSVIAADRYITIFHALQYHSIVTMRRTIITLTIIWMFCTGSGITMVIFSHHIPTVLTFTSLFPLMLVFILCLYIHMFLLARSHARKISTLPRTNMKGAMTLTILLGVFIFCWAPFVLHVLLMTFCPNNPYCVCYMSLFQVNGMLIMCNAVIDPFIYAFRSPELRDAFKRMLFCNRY
UniProt Q8BZ39: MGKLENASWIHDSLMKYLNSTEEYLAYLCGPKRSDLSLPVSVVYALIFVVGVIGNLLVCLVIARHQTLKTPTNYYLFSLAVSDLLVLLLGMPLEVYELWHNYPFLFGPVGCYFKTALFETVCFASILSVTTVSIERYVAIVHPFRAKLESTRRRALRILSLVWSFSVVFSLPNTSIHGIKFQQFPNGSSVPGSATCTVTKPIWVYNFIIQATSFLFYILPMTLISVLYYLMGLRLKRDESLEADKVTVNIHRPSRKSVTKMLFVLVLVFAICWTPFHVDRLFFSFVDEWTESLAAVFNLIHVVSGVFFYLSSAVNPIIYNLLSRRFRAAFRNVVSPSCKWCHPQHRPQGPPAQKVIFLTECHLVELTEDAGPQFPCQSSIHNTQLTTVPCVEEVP
UniProt O88319: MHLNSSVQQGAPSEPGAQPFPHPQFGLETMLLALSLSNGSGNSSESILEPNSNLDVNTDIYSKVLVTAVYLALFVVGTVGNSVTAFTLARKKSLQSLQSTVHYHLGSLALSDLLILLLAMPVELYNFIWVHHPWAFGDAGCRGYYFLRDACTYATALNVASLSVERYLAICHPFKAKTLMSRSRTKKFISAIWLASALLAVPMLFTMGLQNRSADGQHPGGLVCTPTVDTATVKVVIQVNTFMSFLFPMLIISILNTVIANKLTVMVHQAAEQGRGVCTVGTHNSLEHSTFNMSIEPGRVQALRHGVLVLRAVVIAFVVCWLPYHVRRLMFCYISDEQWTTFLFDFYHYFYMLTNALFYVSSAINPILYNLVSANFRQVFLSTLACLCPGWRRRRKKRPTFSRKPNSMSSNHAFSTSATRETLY
UniProt P32240: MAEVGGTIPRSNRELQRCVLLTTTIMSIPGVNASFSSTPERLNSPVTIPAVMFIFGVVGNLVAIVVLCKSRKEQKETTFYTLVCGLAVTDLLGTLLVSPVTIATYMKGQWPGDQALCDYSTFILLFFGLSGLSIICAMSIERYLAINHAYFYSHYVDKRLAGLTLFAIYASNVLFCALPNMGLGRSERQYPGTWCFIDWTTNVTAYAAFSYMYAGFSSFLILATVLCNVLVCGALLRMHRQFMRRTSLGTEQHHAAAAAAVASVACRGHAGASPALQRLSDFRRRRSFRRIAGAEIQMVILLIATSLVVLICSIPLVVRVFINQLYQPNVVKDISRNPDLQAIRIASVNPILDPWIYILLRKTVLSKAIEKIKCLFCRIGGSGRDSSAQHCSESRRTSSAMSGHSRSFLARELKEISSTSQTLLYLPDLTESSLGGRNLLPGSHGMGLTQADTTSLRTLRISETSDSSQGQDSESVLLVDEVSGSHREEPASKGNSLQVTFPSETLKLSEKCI

What all share (assay): co-IP; HEK293T cells transfected with 3xHA-GPCR and 2xFlag-MRAP1 or MRAP2; GPCR immunoprecipitated with rabbit anti-HA, Protein A/G agarose, overnight at 4°C; MRAP detected by mouse anti-Flag blot
Experiment [1] concerns the target 5‐Hydroxytryptamine (serotonin) receptor 2C (mouse) (UniProt P34968).
The target of experiment [2] is T1, Calcitonin receptor (mouse) (UniProt Q60755).
T1 sequence: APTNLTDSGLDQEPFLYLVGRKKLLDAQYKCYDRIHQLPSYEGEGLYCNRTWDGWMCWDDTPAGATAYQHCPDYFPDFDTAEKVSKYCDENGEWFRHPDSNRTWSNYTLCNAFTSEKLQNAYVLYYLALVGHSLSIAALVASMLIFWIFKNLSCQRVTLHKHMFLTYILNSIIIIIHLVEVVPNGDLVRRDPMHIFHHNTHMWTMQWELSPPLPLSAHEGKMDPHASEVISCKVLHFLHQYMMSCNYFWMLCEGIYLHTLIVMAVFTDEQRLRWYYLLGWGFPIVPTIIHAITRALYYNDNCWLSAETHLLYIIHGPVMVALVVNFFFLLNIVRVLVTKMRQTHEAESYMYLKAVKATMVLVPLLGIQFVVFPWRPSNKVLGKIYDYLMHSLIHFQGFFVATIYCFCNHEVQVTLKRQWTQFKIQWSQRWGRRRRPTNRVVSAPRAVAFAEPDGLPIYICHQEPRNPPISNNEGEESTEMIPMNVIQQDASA

For experiment [3], the target named is T2, G protein‐coupled receptor 176 (mouse) (UniProt Q80WT4).
T2 sequence: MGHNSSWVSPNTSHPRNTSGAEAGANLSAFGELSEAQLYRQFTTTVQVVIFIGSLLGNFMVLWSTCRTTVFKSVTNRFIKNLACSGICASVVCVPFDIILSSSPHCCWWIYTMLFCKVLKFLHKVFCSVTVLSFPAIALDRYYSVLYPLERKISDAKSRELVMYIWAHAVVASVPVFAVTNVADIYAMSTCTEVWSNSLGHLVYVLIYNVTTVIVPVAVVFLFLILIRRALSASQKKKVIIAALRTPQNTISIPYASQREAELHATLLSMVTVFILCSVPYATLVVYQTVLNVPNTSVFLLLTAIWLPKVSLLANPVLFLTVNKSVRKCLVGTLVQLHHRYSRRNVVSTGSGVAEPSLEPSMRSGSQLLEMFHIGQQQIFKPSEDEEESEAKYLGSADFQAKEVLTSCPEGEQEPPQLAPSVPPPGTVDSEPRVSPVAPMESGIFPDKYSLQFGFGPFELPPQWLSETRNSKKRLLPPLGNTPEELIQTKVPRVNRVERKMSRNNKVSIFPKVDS

The target in experiment [4] is G protein‐coupled receptor, family C, group 5, member B (mouse) (UniProt Q923Z0).
Experiment [5] addresses Lysophosphatidic acid receptor 1 (mouse) (UniProt P61793).
For experiment [6], the target named is Melanocortin 2 receptor (mouse) (UniProt Q64326).
Experiment [7] deals with Neuromedin U receptor 2 (mouse) (UniProt Q8BZ39).
Experiment [8] addresses Neurotensin receptor 1 (mouse) (UniProt O88319).
The target in experiment [9] is T3, Prostaglandin E receptor 3 (subtype EP3) (mouse) (UniProt P30557).
T3 sequence: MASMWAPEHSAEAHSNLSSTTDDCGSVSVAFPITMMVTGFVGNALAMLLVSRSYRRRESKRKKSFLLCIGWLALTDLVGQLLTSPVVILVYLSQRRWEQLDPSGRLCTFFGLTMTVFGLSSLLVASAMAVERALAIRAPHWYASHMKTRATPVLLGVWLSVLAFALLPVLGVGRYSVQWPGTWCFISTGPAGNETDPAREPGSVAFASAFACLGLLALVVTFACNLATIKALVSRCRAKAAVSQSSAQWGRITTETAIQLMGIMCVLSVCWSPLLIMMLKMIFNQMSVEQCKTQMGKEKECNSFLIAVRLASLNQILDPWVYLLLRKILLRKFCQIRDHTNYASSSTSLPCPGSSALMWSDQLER

For experiment [10], the target named is Prostaglandin E receptor 4 (subtype EP4) (mouse) (UniProt P32240).

No constants are given. Whether binding was seen depends on the method and setting. In cells and extracts the contact can be indirect. Some results given as binding are weak or reduced against the parent protein; the word gives no strength. For some assays here: Where a sequence is shown, tags or fusion partners need not be part of it.

B1: melanocortin receptor accessory protein MRAP2 (protein, UniProt D3Z1Q2 1-207)
chain: MEMSAQRLASNRTSPQSPSNSDYTWEYEYYEIGPVSFEGLKAHKYSIVIGFWVGLAVFVIFMFFVLTLLTKTGAPHQDNAESSERRFRMNSFVSDFGKPLESDKVFSRQGNEESRSLFHCYINEVEHLDRVKVCHQTTAIDSDVHLQEASRSSGRPEEELARFMKFDIPNFVNTEQSSFGEDDLLISEAPVLLENKPVSQTSRIDLD
Turning to B1, the binding entry in [1], in [2], in [3], in [4], in experiment [5] and in experiment [6] was “binds” throughout. In addition, the binding entry in experiment [7] is given as “binds”; in [8], “no binding”; in experiment [9], “binds”; in [10], “binds”.

B2: melanocortin receptor accessory protein MRAP1 (protein, UniProt Q9D159 1-127)
chain: MANGTDASVPLTSYEYYLDYIDLIPVDEKKLKANKHSIVIALWLSLATFVVLLFLILLYMSWSGSPQMRHSPQPQPICSWTHSFNLPLCLRRASLQTTEEPGRRAGTDQWLTQQSPSASAPGPLALP
As for B2, the binding result is listed as “binds” in [1]; “binds” in experiment [2]; “no binding” in [3]; “binds” in experiment [4]; “binds” in experiment [5]; “binds” in experiment [6]. In addition, the binding entry in experiment [7] is “binds”; in experiment [8], “no binding”; in experiment [9] it was “binds”; in experiment [10] it was “binds”.
